Measurements published in paper PMC4336329 (PLoS ONE, 2015).
In all, about 310,000 compounds went through this assay and about 14,000 (4.5%) showed an effect of 50% or more. Effects have a minus sign here. The list shows a part of the results.

Biological target: human ether-à-go-go-related gene (hERG) potassium channel (human, UniProt Q12809)
Test: primary screen, population patch clamp on CHO cells stably expressing hERG
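Further: peak tail current of the secondary pulse compared with the same well before compound.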

Sequence of human ether-à-go-go-related gene (hERG) potassium channel (Q12809 whole entry, looked up): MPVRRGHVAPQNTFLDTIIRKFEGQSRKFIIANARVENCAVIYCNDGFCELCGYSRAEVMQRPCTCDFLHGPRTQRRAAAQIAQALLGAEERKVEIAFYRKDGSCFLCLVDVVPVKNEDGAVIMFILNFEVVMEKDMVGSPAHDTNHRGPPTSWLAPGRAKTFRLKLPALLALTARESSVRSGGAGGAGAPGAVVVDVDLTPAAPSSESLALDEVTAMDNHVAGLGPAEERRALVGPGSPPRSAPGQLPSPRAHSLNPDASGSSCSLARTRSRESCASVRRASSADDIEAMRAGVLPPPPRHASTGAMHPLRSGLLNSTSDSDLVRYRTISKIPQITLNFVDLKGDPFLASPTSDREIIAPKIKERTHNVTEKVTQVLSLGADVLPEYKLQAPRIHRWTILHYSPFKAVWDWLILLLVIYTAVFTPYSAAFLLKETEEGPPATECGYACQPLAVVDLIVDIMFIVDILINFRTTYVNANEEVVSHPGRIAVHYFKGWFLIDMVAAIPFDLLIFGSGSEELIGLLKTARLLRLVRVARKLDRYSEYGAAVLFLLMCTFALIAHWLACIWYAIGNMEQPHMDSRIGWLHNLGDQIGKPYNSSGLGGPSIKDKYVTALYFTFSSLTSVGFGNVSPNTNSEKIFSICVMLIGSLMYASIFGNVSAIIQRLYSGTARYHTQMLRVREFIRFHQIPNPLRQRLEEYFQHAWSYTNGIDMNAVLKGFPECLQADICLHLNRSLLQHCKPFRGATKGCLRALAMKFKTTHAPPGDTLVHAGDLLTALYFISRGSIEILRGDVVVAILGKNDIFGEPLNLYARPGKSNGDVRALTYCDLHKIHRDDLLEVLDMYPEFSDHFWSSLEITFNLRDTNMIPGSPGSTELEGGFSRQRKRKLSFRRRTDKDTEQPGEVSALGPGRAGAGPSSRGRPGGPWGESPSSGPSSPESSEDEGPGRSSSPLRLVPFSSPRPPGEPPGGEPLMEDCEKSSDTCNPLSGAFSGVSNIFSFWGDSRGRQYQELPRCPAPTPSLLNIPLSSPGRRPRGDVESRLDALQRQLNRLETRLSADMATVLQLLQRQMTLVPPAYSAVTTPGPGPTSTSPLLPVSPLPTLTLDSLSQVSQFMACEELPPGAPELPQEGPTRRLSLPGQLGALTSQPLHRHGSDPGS

SMILES | hERG current change (%, negative = inhibition) at 10uM
CC(C)CC(C(=O)NC1CCCCC1)N(Cc1ccccc1)C(=O)c1snc(C(N)=O)c1N (centres unmarked) | -10.4%
O=C(c1cccc(NS(=O)(=O)c2ccccc2)c1)N1CCCC1 | 16.9%
Cc1cc(=O)[nH]c(N2CCN(C(c3ccccc3)c3ccccc3)CC2)n1 | 18.6%
CN(C)c1ccc(C2Nc3ccccc3C(=O)N2NS(=O)(=O)c2ccccc2)cc1 (centres unmarked) | 16.7%
COCC(C)n1c(SCC(=O)Nc2ccc3c(c2)OCCO3)nc2ccccc2c1=O (centres unmarked) | -20.7%
[O-][Cl+3]([O-])([O-])[O-].c1ccc(-c2nc(N3CCOCC3)s[n+]2-c2ccccc2)cc1 | 7.64%
Cc1nc2ccc(NC(=O)c3nn(CC(C)C)c(=O)c4ccccc34)cc2s1 | -26%
CC(C)COc1cccc(C(=O)NC(=S)Nc2cccc(NC(=O)c3ccccc3Cl)c2)c1 | 7.6%
COc1ccc(C)cc1NC(=S)NC(C)c1ccc(OC)c(OC)c1 (centres unmarked) | -8.84%
COCCCNS(=O)(=O)c1ccc(Oc2ncc(C(F)(F)F)cc2Cl)cc1 | 5.64%
CN(C)c1ccc(N2C(=NC(=O)CCC3CCCC3)SC3CS(=O)(=O)CC32)cc1 (centres unmarked) | 17.1%
O=C(NCCC1CCCCN1S(=O)(=O)c1ccccc1)C(=O)NCc1ccccn1 (centres unmarked) | -10.3%
S=C(Nc1ccccc1)N1CCCCCCC1 | 8.2%
COc1cc(OC)cc(C(=O)OCCNC(=O)Cn2cnc3c2c(=O)n(C)c(=O)n3C)c1 | 0.82%
CC(=O)[C@@]1(O)CC[C@H]2[C@@H]3CCC4=CC(=O)CC[C@]4(C)[C@H]3[C@@H](O)C[C@@]21C | 17%
Brc1ccc(-c2noc(C3CCCCC3)n2)cc1 | -7.78%
O=C1/C(=C/c2ccccc2Cl)SC(=S)N1CCCC(=O)N(CCO)c1ccccc1 | -12.8%
O=C(O)C(=O)O.OC1CCCN(CC(O)COC(c2ccc(F)cc2)c2ccc(F)cc2)C1 (centres unmarked) | -57.6%
COc1ccc(CCNC(=O)c2ccc3nc4cc(Cl)ccc4c(=O)n3c2)cc1OC | -9.27%
CC#CC[N+](C)(CC#CC)CC(=O)c1ccccc1.[Br-] | 25.3%
Cc1ccccc1CSc1ccc2nnc(-c3ccccn3)n2n1 | -81.6%
Cc1ccc(NS(=O)(=O)c2ccc(C(=O)N3CCCN(C)CC3)cc2)cc1 | -10.6%
CCCOc1ccc(N2C(=O)CC(N3CCN(c4ccccc4F)CC3)C2=O)cc1 (centres unmarked) | -9.83%
O=C(O)CCC(=O)Nc1ccc(C(=O)OC2CCCCC2)cc1 | 10.9%
COc1cc(C2CC(=O)Oc3c2c(=O)n(C)c2ccccc32)cc(OC)c1OC (centres unmarked) | 12.3%
Cn1ncc(Cl)c1C(=O)N/N=C/c1cc2c(cc1[N+](=O)[O-])OCO2 | -7.29%
O=c1cc(O)c2sc(Nc3cccc(C(F)(F)F)c3)nc2[nH]1 | -32.5%

SMILES | hERG current change (%, negative = inhibition) at 10uM
O=C(CNC1CCCCCC1)Nc1ccccc1N1CCCCC1.O=C(O)C(=O)O | -30.5%
Cc1nn(-c2ccccc2)cc1/C=N/O | 0.476%
O=C(COc1ccc(-c2ccccc2)cc1)Nc1cccnc1 | 11.6%
COC(=O)c1ccc(/C=N/NC(=O)c2ccccc2Cl)cc1 | 2.11%
O=C(NCC12CC3CC(CC(C3)C1)C2)c1nn2cccnc2c1Cl | -36.5%
CC(C)c1nc2c(c(=O)n(C)c(=O)n2C)n1C | -1.37%
CC(C)N(CCNC(=O)c1ccc(NC2=NC3CS(=O)(=O)CC3S2)cc1)Cc1ccco1 (centres unmarked) | 17.1%
CCOc1ccc(NC(=O)c2ccccc2NS(=O)(=O)c2ccc(F)cc2)c([N+](=O)[O-])c1 | 13.7%
CC(C)(C)n1nnnc1C(c1ccncc1)N1CCN(c2ccc(O)cc2)CC1 (centres unmarked) | -4.64%
CC1=C(C(=O)OCc2ccccc2)C(c2ccc(Cl)cc2)NC(=O)N1CCCCCC(=O)O (centres unmarked) | -9.98%
Cc1cc(O)c(C(=O)/C=C/c2c(F)c(F)c(F)c(F)c2F)c(=O)o1 | 21.4%
CCC(C)N(C(=O)CN1C(=O)NC2(CCc3ccccc32)C1=O)C1CCS(=O)(=O)C1 (centres unmarked) | -3.41%
Cc1cc(C)cc(NC(=S)NCCSc2ccc(Cl)cc2)c1 | 7.18%
COc1ccccc1C(=O)N=C1SC2CS(=O)(=O)CC2N1c1ccccc1 (centres unmarked) | 20.8%
COc1ccc(N(C(=O)CNC(=O)c2cccs2)C(C(=O)NC2CCCC2)c2ccncc2)cc1 (centres unmarked) | -7.12%
N#CCCN(C(=O)COC(=O)c1ccc2c(c1)NC(=O)CS2)c1ccc2c(c1)OCCO2 | -22.8%
O=C(N/N=C\c1ccc(OC(=O)c2ccco2)cc1)c1ccc(Cl)cc1 | -0.186%
Nc1ccc(C(=O)N/N=C\c2ccc(OC(=O)c3ccccc3Cl)cc2)cc1 | 19.9%
COc1ccc(-c2cc(-c3ccccc3)c(C#N)c(SCC(=O)Nc3ncc(C)s3)n2)cc1 | 7.28%
COc1ccc(C(=O)CCC(=O)O)cc1 | 4.56%
O=S(=O)(c1ccc(N2CCOCC2)nc1)N1CCOCC1 | 1.96%
CCc1ccc(NC(=O)c2ccc(-n3cncn3)c([N+](=O)[O-])c2)cc1 | -24.1%
COc1cc2c(cc1OC)C(c1ccccc1F)NCC2 (centres unmarked) | 8.75%
N#Cc1ccccc1NC(=O)CC1c2ccccc2Oc2ccccc21 | -2.23%
COc1ccc(NC(=O)C(=O)Nc2cccc3cccnc23)c(OC)c1 | 19.4%
O=C(O)C(=O)O.c1ccc(COc2ccc(OCCCNC3CCCC3)cc2)cc1 | -57.1%
